According to the supplement of paper PMC11417369:
The list shows a part of the results.

Tested on: PF3D7_0420300 AP2 domain 1 (GST-tagged)
Test: gcPBM binding intensity (ln(normalized median fluorescence intensity)); higher = stronger DNA binding
How it was run: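 Binding of GST-tagged P. falciparum DNA-binding domains, expressed in E. coli and used at about 25 μg on average, was carried out for 1 h in 1× PBS containing 1% milk, 0.2 mg/ml BSA, 0.5% salmon testes DNA and 0.03% Triton X-100. The target was an Agilent 4 × 180k array of primer-extended double-stranded 36-bp intergenic genomic probes plus negative controls, read with Alexa488 anti-GST antibody at 488 nm. Binding intensity is the highest Masliner-normalised natural-log median intensity across replicate spots of either probe orientation.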

Row | Sequence | gcPBM binding intensity (ln)
1 | AGGAAAAAAAAAATGTGTACTTAAAAAAAAAAAATT [XGTACX_site1471] | 9.43
2 | CGTTTATATTTTAACTGTACTCAAAAAGTGCATTGT [XGTACX_site6072] | 9.17
3 | TTTTATCATATTTATTGTACACATAATATACATATC [XGTACX_site1145] | 9.37
4 | TGTATGTTTATTTATCGTACATATATATATATATAT [XGTACX_site7315] | 9.35
5 | TTTTATATATTATATACACACATATATATATATATA [CACACA_site2999] | 9.29
6 | CACGTGTAAATAGTTTTACAATATCTCGATATGTAT [CACACA_negctrl_site785] | 9.14
7 | GGATATATGAAACATATTGAAAAACCGTTTAGTACA [CACACA_negctrl_site132] | 9.31
8 | GTAATTATATACATACGTACATACACATATGTATAT [XGTACX_site4149] | 9.32
9 | TTATATGAAAATTATTGTACAATCTATAAAAAAAAT [XGTACX_site4194] | 9.15
10 | TTACTATGTAAACACACATGCAATATATGTTAAGCC [TGCATGCA_site253] | 9.32
11 | TAATAATCAAACTATACACACATAAATAAATATATA [CACACA_site156] | 9.68
12 | AAGGAAATAAGAAAAAGTACACATAAGTATATAACA [XGTACX_site1173] | 9.53
13 | GTATATATACATAAATGTACATATATATAAAAAATG [XGTACX_site3271] | 9.26
14 | AATATATAAGTCTACTGTACCCAAAATAAAATTTAT [XGTACX_site8727] | 9.18
15 | AAATAAGAACATAGAATGCACTTTTTTTTTTTTTCC | 9.04
16 | ATATATTTATATATTGCACACAAAAAAAAAAAAAAA [CACACA_site8468] | 9.04
17 | AACATTATAAGACACACACACACATATATAAATATA [CACACA_site6622] | 10.3
18 | ATATATCCAAATAGATTACATATATATATATAGATA [TGCATGCA_negctrl_site277] | 9.22
19 | AAATATAATAAAATGACACACGCATATATATATATA [CACACA_site8900] | 9.38
20 | TATTGCCCTTGACACACACACATATAAATAAATATA [CACACA_site7220] | 9.84
21 | TAAGGTTAAATAATATGTACATATTATTATATATAT [XGTACX_site6953] | 9.16
22 | TTATGGGACTCAAATACATGCAAAAATATTTTTAAG [TGCATGCA_site559] | 9.05

Row | Sequence | gcPBM binding intensity (ln)
23 | AAATATGTATATATATATATATATATATATATATAT [GTGCAC_negctrl_site335] | 8.99
24 | TTAAACCGTGGGAGCACACACACACCCAGACACATA [CACACA_site4337] | 9.86
25 | AATAAAGCAATAAATACACACATATATATATATATA [CACACA_site2934] | 9.31
26 | TATATAAAAAATAGGTGGTCAACTTAAATATTTTAT [XGTACX_site4495] | 9.31
27 | AGTTATGCATCTTAGGTGCTATGCCCAATTTATTTT [GTGCAC_site9977] | 9.31
28 | AAAAAAAAAAAAAATGCACACATATATTTCCATATA [CACACA_site8416] | 9.33
29 | TTGCCTTAAAAAGGAACACACATGCTTTTTTTAGTT [CACACA_site938] | 9.37
30 | AACTTACTCTTTACAAGTACGTAAAAGAAATAGAAA [XGTACX_site1782] | 8.95
31 | GTAGTAATAAATCTAGTGCATTATATATAACAAAAA [GTGCAC_site9803] | 9.33
32 | TTTTTTTCTTTTTTTTGTACTCATACATACTATCAT [XGTACX_site607] | 9.25
33 | AAAATATATCAAAATAGTACATAATTTTTTAAGAAT [XGTACX_site3515] | 9.17
34 | AAAAATGTGCACACGCGTACACACAAAAAAAGAAAA [XGTACX_site4097] | 9.76
35 | TGTACGAGTCGTAGAGTGCAGTCTGGAGAAACGTAC [GTGCAC_site9682] | 9.24
36 | TATATACGTAATAGTAGTACTTTAAAATGCGGAAAT [XGTACX_site4597] | 9.44
37 | ATAAATAACTTTTAAATACACACGTAAAATATATTG [CACACA_site3302] | 9.43
38 | ATTTATATTATGAGGAGTACAATACTTATAGATGTA [XGTACX_site7510] | 9.18
39 | GATAGACACGTGCACACATGCAATACTTTATTCAGT [TGCATGCA_site778] | 9.56
40 | AAAAAAGATATATAAACACACATATTTATATACACA [CACACA_site6866] | 9.53
41 | ATATACATTTTAAATTTTAATGTAACCCATGGGAGA [CACACA_negctrl_site588] | 9.04
42 | TGAACCCACAAATCACGTACATATATATACACGTGT [XGTACX_site7739] | 9.28
43 | TTTAACAACTATTTCTGTACACATTTTTATATAATT [XGTACX_site4917] | 9.47
44 | TTAAATATCCATATTTCACACATTTCGATATATATA [CACACA_site4208] | 9.21

Row | Sequence | gcPBM binding intensity (ln)
45 | ACTGTACTATAAAATACACACATATAAATATAAATA [CACACA_site3009] | 9.62
46 | CCTAAATAAATGGACACACACATATTTATATTTATA [CACACA_site6789] | 9.67
47 | ATAATGTCATAATTATATCCTTTGGCATAAAATAAA [XGTACX_negctrl_site574] | 8.87
48 | TATAATATTATATAATGTACGCATTTATTATTTAAA [XGTACX_site8326] | 9.03
49 | GAATGTAAATATTAAAGTACACAGAATATATCTTCA [XGTACX_site8149] | 9.25
50 | AAATAAAATCATGAATGTACACAAAAATTATTGCAA [XGTACX_site5691] | 9.35
51 | TTTGAAGGAAGGGGGGGAGGGGCCATAACAAAGGAA [GTGCAC_negctrl_site408] | 10.4
52 | ATACCATATAATTATGTGAGAAAATATAATATTCAT [CACACA_negctrl_site310] | 9.25
53 | ATTTTCTTAAATAAATGTACATGGCATTAAAAGTAA [XGTACX_site5119] | 9.06
54 | TATTTGTATATTCATTCCTGTATTCCCTTTTTTGTA [CACACA_negctrl_site1236] | 9.65
55 | AAAAAAAAAAAAAATACACACAAATAATAAAAATAA [CACACA_site1431] | 9.85
56 | TGTACGTTTTTTAACACACACACAAAAAAAAAAAAA [CACACA_site6006] | 9.5
57 | ATATATATATATGTATGTACATAATATTTTTTTTAT [XGTACX_site5551] | 9.19
58 | AGTAAATATATTATATGTACGTATCATAAAATATAT [XGTACX_site1567] | 9.23
59 | TTAATATTAAAATATAAACACACAAAATTCAATTAT [CACACA_site9262] | 9.47
60 | ATTTTTTTTTTTTTTTTTAATTTATGTTGTTATTTT [CACACA_negctrl_site944] | 9.6
61 | GTAAAATAAATAATATAAATAAAATGAAATGAAACA [TGCATGCA_negctrl_site519] | 9.61
62 | AAGTTTAAAGGAATTACACAAACAAGCAAATATATA [CACACA_negctrl_site857] | 9.51
63 | TAATATATTAAAAGAAGTACATTTCTGATTTAATAG [XGTACX_site6403] | 9.04
64 | ATATATATATATATAGTGCAAATAAAAAATAGACAA [GTGCAC_site9796] | 9.68
65 | GAACCGTTTTTATGTAGTACATATGTATATATATAT [XGTACX_site1577] | 9.54
66 | ATTATATAATAATAAAGTACTAATATTTTTAAAAGA [XGTACX_site235] | 8.97

Row | Sequence | gcPBM binding intensity (ln)
67 | TATTACAAAAATGTGTTATTATATAAACGTATAGAG [XGTACX_negctrl_site529] | 9.23
68 | AATATAATATAATGCACACATAAAAAAAAAAAAAAA [CACACA_site304] | 9.34
69 | AAATTACAAATAAAATGTACTCATGTTTTTATTATA [XGTACX_site7223] | 9.02
70 | TTTTTAATTTTTTTCACACATATATAAATACAAATA [CACACA_site5530] | 9.05
71 | TTTTTTAAATATATATGTACATATATCTATATATAT [XGTACX_site3461] | 9.11
72 | TTTATAATTTATAGGCGGACAGGAAAATTTTATAAA [XGTACX_site6955] | 9.26
73 | GCAAGGTCCACACTGGTGCATTAAAAATAAAATATA [GTGCAC_site9956] | 8.96
74 | TGAACAGGTCATAATTTACACACTATATATTTTATT [CACACA_site8123] | 9.57
75 | TTTTTCTTTTTTTGTTGTACATTTTGTAATATTTAC [XGTACX_site4102] | 9.47
76 | TACAGGAATATTTTTACACACTAAAAGTTATAAACT [CACACA_site6876] | 9.3
77 | AAGAAAAATTCTTCACGTACAAATAATTATATATAT [XGTACX_site7217] | 9.17
78 | TATAATATATATGTATGTACGTATGTATGATTTTGT [XGTACX_site1164] | 9.34
79 | TTATTTATATATTGCCCACACACATGTGATTATTTA [CACACA_site1715] | 9.75
80 | AATATTTTTTGTTTTACACACATATATAAATATATA [CACACA_site3602] | 9.64
81 | GAATTATATACTTATTGTACAAAAAAAAAAAAAAAA [XGTACX_site3193] | 8.68
82 | ATAAACATGTATATATTAAAAAAAAAAAAAAAAAAT [CACACA_negctrl_site92] | 9.33
83 | ACGATGTTCATCACTACACACACAAAGAAATATATA [CACACA_site8859] | 9.81
84 | AACCAAAATTTTTGTCGTACAAAAGAGCAAATGTAG [XGTACX_site6472] | 9.38
85 | TTTTACTATGATATTTATATATCTATATATGTATAT [XGTACX_negctrl_site499] | 9.23
86 | AAAAATAAAAATGAGTGTACTTTAAGCCCTACACTT [XGTACX_site828] | 9.19
87 | TATAATATTATAGTTTGTACGAAAATAATATATTTA [XGTACX_site8673] | 8.91
88 | AATGTAAAACGAAATGCACACTATGGAAAATATAAA [CACACA_site4559] | 9.65
